Measurements published in PubChem BioAssay AID1745853 (National Center for Advancing Translational Sciences (NCATS), 2022).
The list shows a part of the results. These are further read-outs of the screen, such as a control signal, another cell line or another target. No call is given for them. Peptide text beside a SMILES is read from it. * marks the point of attachment. βNA = c1ccc2cc(N*)ccc2c1; Cbz = O=C(OCc1ccccc1)*

How the values were obtained:
Assay in all cases: Primary Screen for Target Class Profiling of Small Molecule Inhibitors of Methyltransferases
[1] = target: Glycine N-methyltransferase (Homo sapiens) (UniProt Q14749); conditions: purified enzyme, MTase-Glo SAH luminescence; measured here: GNMT inhibition; at 40 µM; stronger effect = lower value
Summary of the method: (§1)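 Each enzyme was reacted with SAM and its substrate, with compounds tested once at 40 uM; SAH formed was read by MTase-Glo luminescence.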

[2] = target: Guanidinoacetate N-methyltransferase (Homo sapiens) (UniProt Q14353); conditions: purified enzyme, MTase-Glo SAH luminescence; measured here: GAMT inhibition; at 40 µM; stronger effect = lower value
Summary of the method: as §1

[3] = target: Histamine N-methyltransferase (Homo sapiens) (UniProt P50135); conditions: purified enzyme, MTase-Glo SAH luminescence; measured here: HNMT inhibition; at 40 µM; stronger effect = lower value
Summary of the method: as §1

[4] = target: Nicotinamide N-methyltransferase (Homo sapiens) (UniProt P40261); conditions: purified enzyme, MTase-Glo SAH luminescence; measured here: NNMT inhibition; at 40 µM; stronger effect = lower value
Summary of the method: as §1

[5] = target: Phenylethanolamine N-methyltransferase (Homo sapiens) (UniProt P11086); conditions: purified enzyme, MTase-Glo SAH luminescence; measured here: PNMT inhibition; at 40 µM; stronger effect = lower value
Summary of the method: as §1
% is scaled to controls: 0 for no effect and ±100 for the full control effect.

| SMILES | activity change, negative = inhibition [1] [%] | activity change, negative = inhibition [2] [%] | activity change, negative = inhibition [3] [%] | activity change, negative = inhibition [4] [%] | activity change, negative = inhibition [5] [%] |
| --- | --- | --- | --- | --- | --- |
| COc1ccc(CCO[C@@H]2O[C@H](CO[C@H]3OC[C@](O)(CO)[C@H]3O)[C@@H](OC(=O)/C=C/c3ccc(O)c(O)c3)[C@H](O[C@@H]3O[C@@H](C)[C@H](O)[C@@H](O)[C@H]3O)[C@H]2O)cc1OC | -1.46 | -7.9 | 5.52 | -19.9 | -15.3 |
| Cc1cc(Cl)ccc1NS(=O)(=O)c1ccc2[nH]c3c(c2c1)CCCC3 | 1.42 | 0 | 5.73 | -12.8 | 4.54 |
| O=C(c1cn[nH]c1)N1CCC(c2nc(CCOCC3CC3)no2)C1 (stereo not given) | -5.47 | -1.26 | -2.14 | -2.37 | -5.48 |
| O=C(NC1CCCN(CCn2nc3n(c2=O)CCCC3)C1)c1ccccc1Cl (stereo not given) | -2.41 | -4.13 | 2.54 | -2.65 | 1.95 |
| CCC(C(=O)N1CCCn2nc(C(=O)Nc3ccccc3)cc2C1)n1cccn1 (stereo not given) | -6.96 | -5.04 | -3.69 | -6.13 | -10.6 |
| O=C(CSc1nnc2n(Cc3ccc(F)cc3)c(=O)c3ccccc3n12)Nc1cccc(Cl)c1 | 6.33 | 2.44 | 9.9 | -2.47 | 5.5 |
| CC(C)CC(NC(=O)OCc1ccccc1)C(=O)NC(CC(C)C)C(=O)NC(CCC(=O)O)C(=O)Nc1ccc2ccccc2c1 (stereo not drawn) (Cbz-Leu-Leu-Glu-βNA; configuration not given here) | -1.1 | 12.6 | 11.6 | -9.17 | 7.91 |
| COc1ccc(C(=O)CC(=O)O)c2c1C=CC(C)(C)O2 | 5.88 | 6.85 | 11.2 | -4.65 | 5.78 |
| Cc1cnn(CCC(=O)N2CCCn3ccnc3C2c2cnn(C)c2)c1 (stereo not given) | -0.595 | -1.8 | 2.42 | -4.53 | 3.38 |
| CC(C)N1CC(C(=O)NCCc2ccc(Cl)cc2)NC1=O (stereo not given) | -5.57 | -7.13 | -5.11 | -9.65 | -4.42 |
| Cc1ccc(C2(COC(=O)C(C)C)CO2)c(OC(=O)C(C)C)c1 (stereo not given) | 1.62 | -2.86 | 7.09 | -15 | -0.543 |
| C/C=C1\[C@H](O[C@@H]2O[C@H](CO)[C@@H](O)[C@H](O)[C@H]2O)OC=C2C(=O)OCCc3ccc(O)c(c3)Oc3ccc(cc3)CCOC(=O)C[C@H]21 | -5.21 | -9.68 | 0.833 | -19 | -10.8 |
| CC(C)NCC(O)COc1cccc2ccccc12 (stereo not given) | 3.67 | 12.6 | -5.69 | -6.71 | 3.7 |
| CC1(C(=O)NCc2ccccc2)Cn2c(cc3ccccc32)C(=O)N1Cc1ccco1 (stereo not given) | 0.826 | -1.83 | 2.98 | -4.52 | -3.85 |
| O=C(CCSCc1ccccc1)N1C[C@@H](CN2CCOCC2)[C@@H](CO)C1 | -0.853 | -1.3 | 1.45 | -2.8 | 0.84 |
| COc1ccc(-c2cc3n(n2)CC(C)(C(=O)NCc2ccccc2OC)N(c2cc(Cl)ccc2C)C3=O)cc1 (stereo not given) | 8.25 | 3.59 | 9.21 | 7.34 | 2.15 |
| CCN1C(=O)c2c(C(=O)NCc3cc(OC)ccc3OC)ncn2CC1(C)C(=O)NC1CCCC1 (stereo not given) | 3.63 | 0 | 9.84 | 2.3 | 10.3 |
| CN(Cc1cccn1C)C(=O)c1ccccc1 | -7.34 | -6.19 | -3.39 | -15.1 | -25.2 |
| COc1ccc(N2CCN(C(CNS(=O)(=O)c3ccccc3)c3ccco3)CC2)cc1 (stereo not given) | -2.47 | 2.86 | -6.88 | -10.8 | -5.22 |
| CCCN1C(=O)c2ccc(-c3ccccc3)n2CC1(C)C(=O)NC1CCCCC1 (stereo not given) | 4.53 | 0 | 4.38 | 7.7 | 4.72 |
| CN(C)C[C@@H]1CN(c2ncccn2)C[C@H]1NC(=O)COc1ccc(Cl)cc1 | -1.36 | -3.43 | -1.45 | -9.05 | -2.23 |
| O=C(Nc1ccn(Cc2ccc(O)cc2C(F)(F)F)n1)c1c(F)cccc1F | -2.93 | 2.67 | 10 | -12.4 | 3.29 |
| CC1CCC(NC(=O)C2(C)Cn3c(cc4occc43)C(=O)N2c2ccc(Cl)cc2)CC1 (stereo not given) | -7.39 | 0.723 | 1.38 | -16.5 | -4.83 |
| CC1(C(=O)NCC2CCCO2)Cn2c(cc3ccccc32)C(=O)N1C1CCCc2ccccc21 (stereo not given) | 6.2 | 3.76 | 8.33 | 9.34 | 0.238 |
| CCCOc1ccc(CNC(=O)c2ncn3c2C(=O)N(CCC)C(C)(C(=O)NCCC(C)C)C3)cc1 (stereo not given) | -0.817 | 0 | 5.1 | 3.49 | 8.39 |
| O=C(Cn1cccn1)N1CC[C@@H]2[C@@H](CCC(=O)N2CCc2cnc[nH]2)C1 | -2.64 | -0.104 | 0.555 | -1.24 | -4.61 |
| Cc1nnc(-c2sc(NC(=O)[C@H](C(C)C)n3c(=O)[nH]c4ccccc4c3=O)nc2C)o1 | 3.01 | 0.273 | 10.7 | -20.7 | -0.658 |
| C[C@@H](Cc1cc2c(c(C(N)=O)c1)N(CCCO)CC2)NCCOc1ccccc1OCC(F)(F)F | -1.96 | -5.23 | -1.75 | -17.2 | -7.19 |
| COc1cccc(NC(=O)O[C@@H]2CO[C@H]3[C@@H]2OC[C@@H]3Nc2nccc(-c3ccccc3)n2)c1 | 0.536 | -0.609 | 1.63 | 6.75 | 4.79 |
